PubChem BioAssay AID1159614 (National Center for Advancing Translational Sciences (NCATS), 2016)
Hit rate of the full screen: of about 45,000 compounds, about 65 (0.1%) were called active. Calls follow the shape of the dose curve; as a rule, active = well fitted activation curve with a large enough effect; inconclusive = small, poorly fitted or top-dose-only effect; inactive = no such curve, though single readings can be large or run the other way. The list shows a part of the results.

Biological target: Galactocerebrosidase (Homo sapiens) (UniProt P54803)
Chain of UniProt P54803 (P54803 whole entry, looked up): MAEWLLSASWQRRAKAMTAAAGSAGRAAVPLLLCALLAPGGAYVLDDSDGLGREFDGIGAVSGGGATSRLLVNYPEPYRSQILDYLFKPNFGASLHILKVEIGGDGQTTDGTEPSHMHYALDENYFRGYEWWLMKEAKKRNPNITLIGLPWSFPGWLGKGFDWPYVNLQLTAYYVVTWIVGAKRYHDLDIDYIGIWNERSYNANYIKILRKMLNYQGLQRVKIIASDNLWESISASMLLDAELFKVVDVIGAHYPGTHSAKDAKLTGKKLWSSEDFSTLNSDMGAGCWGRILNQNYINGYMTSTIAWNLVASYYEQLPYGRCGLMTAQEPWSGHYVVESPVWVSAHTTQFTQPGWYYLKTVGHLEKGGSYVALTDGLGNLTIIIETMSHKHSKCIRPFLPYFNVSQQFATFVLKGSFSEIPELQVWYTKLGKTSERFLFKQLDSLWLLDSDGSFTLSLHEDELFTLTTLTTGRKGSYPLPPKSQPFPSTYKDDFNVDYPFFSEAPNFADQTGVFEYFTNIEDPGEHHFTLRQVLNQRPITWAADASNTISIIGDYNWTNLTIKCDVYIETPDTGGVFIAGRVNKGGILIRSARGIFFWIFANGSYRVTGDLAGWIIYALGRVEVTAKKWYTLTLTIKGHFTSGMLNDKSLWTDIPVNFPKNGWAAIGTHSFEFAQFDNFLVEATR
Test: A Novel Cell-Based Assay to Identify Small Molecules for B -Galactocerebrosidase; also: 0% is about no effect; nearly all actives have a fitted effect of over 65% in size
Details: 145M-Twi-hGALC-G270D cells (Twitcher mouse brain line with human GALC G270D), HMU-beta-Gal fluorescence, 48 h; series mostly up to 57.5 µM; activation: at the top concentration
Outline: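 Live 145M-Twi cells (Twitcher mouse brain-derived, GALC-null) stably expressing human GALC-G270D, with a wild-type GALC line, were compound-treated. Residual GALC activity was then read as fluorescence from 0.1 mM final HMU-β-gal at pH 5.2; higher signal means activation.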

activation, inactive:
Cc1cc(C)cc(C(=O)Nc2ccc(-c3nc4ncccc4o3)cc2)c1 -16.9%
O=C(NCc1ccc(Cl)cc1)c1cc(S(=O)(=O)N2CCCCC2)c[nH]1 -9.43%
CCOc1ccc2nc(NC(=O)c3cc(=O)c4ccc(C)cc4o3)sc2c1 -14.8%
CCN1CCSc2ccc(C(=O)NC(C)c3ccccc3)cc21 (stereo unspecified) -0.778%
Cc1ccc(CNC(=O)Cn2nc(C)n3cccc3c2=O)cc1 -15%
Cc1ccc(-n2ncc(C(=O)N3CCN(c4cccc(C)c4)C(C)C3)c2C2CCN(C(=O)OC(C)(C)C)CC2)cc1 (stereo unspecified) 10.7%
COc1ccccc1CNC(=O)CCn1c(=O)c2ccccc2n(CC(=O)Nc2cccc(Cl)c2)c1=O -8.25%
CCOC(=O)c1cc(-c2ccccc2)n(-c2cccc(C(=O)Nc3ccc(F)c(F)c3)c2)c1C -9.94%
COc1c(C)cc(S(=O)(=O)NCCc2c(C)[nH]c3ccccc23)c(C)c1C -9.84%
COc1ccc(OC)c(NC(=O)C2CCCN(S(=O)(=O)c3c(C)nn(C)c3C)C2)c1 (stereo unspecified) -2.42%
Cc1ccc(NC(=O)c2cnn3c(C(F)F)cc(-c4ccccc4)nc23)c(C)c1 -7.01%
Cc1ccc(NC(=O)Nc2nnc(N(CC(C)C)CC(C)C)s2)cc1Cl -14.7%
CCN(CC)CCCC(C)Nc1c2ccc(Cl)cc2nc2ccc(OC)cc12 (stereo unspecified) -13.6%
CCOc1ccc(-c2cc(NC(=O)Nc3cccc(C(C)=O)c3)c(C(=O)OC)s2)cc1 -9.18%
CCOc1ccc(S(=O)(=O)NCC(c2ccco2)S(=O)(=O)c2cccs2)cc1 (stereo unspecified) -5.3%
CCOC(=O)c1ccc(NC(=O)CCCc2nc(-c3ccccc3Cl)no2)cc1 -14.6%
COc1ccc(NC(=O)C2=C(C)Nc3ncnn3C2c2ccc(O)cc2)cc1 (stereo unspecified) 3.63%
CCOC(=O)CSc1nc2ccc(NC(=O)c3ccc(C)cc3)cc2s1 3.8%
COc1cccc(N2CCN(C(=O)C(CCSC)NS(=O)(=O)c3ccc4c(c3)oc(=O)n4C)CC2)c1 (stereo unspecified) 4.08%
CCc1ccc(CNC(=O)Cc2ccc(NC(=O)N3CCSc4ncccc43)cc2)cc1 -16%
O=C(O)c1ccc2c(c1)ncn2-c1ccc(F)c(F)c1 -3.01%
CCOc1ccc(-c2nonc2NC(=O)c2oc3cc(C)ccc3c2C)cc1 -4.92%
CCCCSCCCNC(=O)CN1C(=O)c2cccnc2Oc2ccc(Cl)cc21 -3.57%
COc1ccc(OC)c(NC(=O)c2cc3c(=O)oc4ccccc4c3s2)c1 -7.94%
Cc1cc2c(cc1S(=O)(=O)NCc1ccccc1Cl)OCCN2C -5.4%
Cc1ccc(C)c(NC(=O)c2ccc3c(O)c(S(=O)(=O)c4ccc(Cl)cc4)c(=O)[nH]c3c2)c1 -15.4%
CCN(CC)c1nn2c(=O)c(C(=O)NCCc3ccccc3)cnc2s1 -13%
COc1ccc(S(=O)(=O)N2CCN(c3ccccc3F)CC2)cc1-c1noc(C)n1 -18.5%
Fc1ccc(-c2noc3ncnc(N4CCN(c5ccccc5)CC4)c23)cc1 -22.5%
O=C(NCc1ccc(F)cc1)c1ccc2c(Cl)c3c(nc2c1)CCCC3 -18.5%
COc1ccc(OC)c(NC(=O)Cc2coc3ccc(C(C)C)cc23)c1 -22.1%
CCOC(=O)c1[nH]c(C)c(CCC(=O)NCc2ccccc2)c1C -19.1%
Cc1cc(C)cc(NC(=O)N2CCC(N3CCCCC3)CC2)c1 -12.4%
CCOC(=O)c1c(-c2ccccc2)oc2ccc(N(C(C)=O)S(=O)(=O)c3cc(C)ccc3C)cc12 -5.69%
CCc1cccc(-n2c(C)nc3c(cnn3-c3ccc(Cl)cc3)c2=O)c1 -6.15%
CCOC(=O)c1ccccc1NC(=O)C(=O)Nc1ccc2nc3n(c(=O)c2c1)CCCCC3 -13.8%
CC(=O)N1CCOc2cc(S(=O)(=O)Nc3cccc(C(F)(F)F)c3)c(Cl)cc21 -24%
Cc1cn2c(=O)cc(COc3cccc(NC(=O)c4ccccc4C)c3)nc2s1 -4.57%
COc1ccc(NC(=O)C2CCN(S(=O)(=O)c3ccc4[nH]c(=O)ccc4c3)CC2)c(OC)c1 -13.6%
CCOc1ccc(CNC(=O)C2CCN(c3nnc(-n4cccc4CNc4ccc(C)cc4)s3)CC2)cc1OC -7.6%
CCc1c(C)nc(SCC(=O)N2CCN(c3ccccc3OC)CC2)[nH]c1=O -18.5%
Cc1ccc(O)c(C(CC(=O)NCC2(c3ccccc3)CCCC2)c2ccccc2)c1 (stereo unspecified) -18.8%
Cc1ccccc1NC(=O)c1nc(-c2ccncc2)no1 -4.66%
CCC(C(=O)OCc1cc(=O)n2nc(CCOC)sc2n1)c1ccccc1 (stereo unspecified) -12.1%
COc1cccc(N2CCN(c3nc4ccc(C(=O)c5ccccc5)cc4n4c(C)nnc34)CC2)c1 5.72%
Cc1ccc(NC(=O)Cn2c(CCC(=O)O)ccc2-c2cccs2)cc1 -9.54%
CCOc1cc(C2c3c(oc4ccccc4c3=O)C(=O)N2Cc2ccc3c(c2)OCO3)ccc1O (stereo unspecified) -23.6%
Cc1ccc(-n2ncc(C(=O)Nc3ccc(C)c(F)c3)c2C2CCN(C(=O)OC(C)(C)C)CC2)cc1C -2.69%
Cc1nc2sc(C(=O)NCc3ccc(Cl)cc3)c(NC(=O)c3ccccc3)c2c(C)c1C -3.45%
Cc1ccc(CNC(=O)CCCCn2c(=O)c3ccccc3n(Cc3ccc(Cl)cc3)c2=O)cc1 10.8%
O=C(Nc1ccc2nc(SCC(=O)N3CCCC3)sc2c1)c1ccc(F)cc1 -16%
COC(=O)C(C)Sc1nc2c([nH]c3ccccc32)c(=O)n1-c1ccc(OC)cc1 (stereo unspecified) -17.8%
Cc1ccc(NC(=O)NCc2cccn2Cc2ccccc2)cc1F -17.9%
Cc1ccc(-c2cn3c(n2)sc2cc(C(=O)N4CCCCC4)ccc23)cc1 0.83%
Cc1cc(C)c2c(=O)cc(C(=O)Nc3ccc(S(=O)(=O)Nc4nc(C)cc(C)n4)cc3)oc2c1 -18.9%
Cc1cc(Nc2cccc(Cl)c2C)n2nc(Cc3ccccc3)nc2n1 -13%
COc1ccc(CNC(=O)CCCn2c(SCC(N)=O)nc3cc4c(cc3c2=O)OCO4)cc1 -13.3%
COc1cc(Cl)c(C)cc1NC(=O)c1cn(CC(C)C)c(=O)c2cc(OC)c(OC)cc12 -15.2%
CCOc1ccccc1NC(=O)Cn1c(=O)n(Cc2ccccc2)c(=O)c2c(C)c(C(=O)N(C)C)sc21 -10.8%
CCN(CC)C(=O)CSc1nc2cc3c(cc2c(=O)n1Cc1ccc(C(=O)NCCc2ccc(OC)c(OC)c2)cc1)OCO3 -11.3%
COc1cc(CN(CC2CCCO2)C(=O)c2ccccc2F)cc(OC)c1OC (stereo unspecified) -1.53%
Cc1cc(C)c(NC(=O)Cn2c(=O)n(CCCCC(=O)NCc3ccccc3Cl)c(=O)c3ccccc32)c(C)c1 -5.6%
CC(C)OCCCNC(=O)CCCn1c(SCC(=O)c2ccc(Br)cc2)nc2c(sc3ccccc32)c1=O 0.523%
CC(NC(=O)c1ccccc1)c1nc2ccccc2n1Cc1ccc(Cl)cc1 (stereo unspecified) -21.1%
COc1ccc(CNC(=O)c2cnn3c(C)c(Cc4ccc(F)cc4)c(C)nc23)cc1 -18.2%
COc1ccc(C(=O)Nc2ccc3nc4n(c(=O)c3c2)CCCCC4)cc1OC -13.5%
CCOc1ccc(NC(=O)CN2C(=O)COc3ccc(S(=O)(=O)Nc4ccccc4)cc32)cc1 -10.7%
Cc1ccc(OCCSc2nc3ccccc3n2CC(=O)N2CCOCC2)c(C)c1 12.1%
Cc1ccc(Cl)cc1NC(=O)Cn1nc2c(cc1=O)CC(C)CC2 (stereo unspecified) -7.6%
CC(C)Cn1c(=O)c2ccccc2n2c(-c3cccc(Cl)c3)nnc12 -15.5%
COc1ccc(C(=O)NCc2nnnn2-c2ccc(C)c(C)c2)cc1 -13.1%
COc1ccc(Cl)c(Cn2c(NCCN)nc3c2c(=O)n(C)c(=O)n3C)c1 -24.6%
CCC(=O)N1CCc2cc(Br)cc(S(=O)(=O)N3CCC(C(=O)NC(C)(C)C)CC3)c21 -10.2%
O=C(NNc1ncnc2c1cnn2-c1ccccc1)c1cccc(Cl)c1 -13.4%
CCCOc1ccccc1Cn1c(=O)sc2ccccc21 -15.9%
Cc1ccc(Cl)cc1Nc1nc2ccccc2n2c(C)nnc12 -14.3%
N#Cc1ccc(-c2cccs2)nc1SCc1ccc(Cl)cc1Cl -15.5%
CCOc1ccc(NC(=O)N2CCOc3ccccc32)cc1 -20.5%
Cc1ccnc(NC(c2ccccc2F)c2ccc3cccnc3c2O)c1 (stereo unspecified) -22%
CCc1ccccc1NC(=O)CSc1nnc(-c2nonc2NC(C)=O)n1C -12%
Cc1[nH]c(=O)[nH]c(=O)c1C1N2CC3(C(C)C)CN1CC(C(C)C)(C2)C3=O (stereo unspecified) -26.5%
Cc1ccc(N2CCn3c2nc2c3c(=O)n(CCc3ccccc3)c(=O)n2C)cc1C -9.77%
CCOC(=O)c1ccc(NC(=O)CN2C(=O)c3cccnc3Oc3ccc(Cl)cc32)cc1 -2.74%
CN(CCOc1ccc(NS(C)(=O)=O)cc1)CCc1ccc(NS(C)(=O)=O)cc1 -12.4%
CCCCc1nn2c(=O)cc(COC(=O)c3ccccc3NC(=O)C(C)(C)C)nc2s1 1.34%
Cc1cc(NS(=O)(=O)c2ccc(NC(=O)COc3ccc(Br)cc3C)cc2)no1 -15.7%
CCc1ccc(-n2c(C)nnc2SCc2nc(-c3ccc(OC)cc3)no2)cc1 -7.95%
Cc1ccc(NC(=O)CCSCCc2ccccn2)cc1 -8.76%
Cc1ccc(-c2cc3ncc(C(=O)c4cc([N+](=O)[O-])ccc4O)cn3n2)cc1 9.64%
O=C(Nc1ccc(Cl)cc1Cl)c1cc(S(=O)(=O)N2CCN(c3ccccc3F)CC2)ccc1F -19.4%
Cc1ccn2c(c1)nc(=O)c1cc(S(=O)(=O)N3CCC(C)CC3)c(Cl)cc12 -14.1%
CCCCN(C)CCNC(=O)c1cc(-c2cccnc2)nc2ccc(S(=O)(=O)N3CCC(C)CC3)cc12 -12.9%
O=C(COc1ccccc1F)Nc1ccc(C(=O)OCc2cc(=O)n3nc(C4CC4)sc3n2)cc1 -8.37%
CN(Cc1ccccc1)c1nc(-c2ccc(F)cc2)cc(C(F)(F)F)n1 -25.3%
CC(C)(C)OC(=O)N1CCC(c2c(C(=O)NCc3ccc4c(c3)OCO4)cnn2-c2ccc(F)cc2F)CC1 -5.51%
O=C(Nc1ccc(Cl)cc1)C1CCN(c2nc3ccccc3n3cccc23)CC1 -3.76%
